This note sets out measurements from paper PMC4336329 (PLoS ONE, 2015).

The campaign covered roughly 310,000 compounds. About 2,200 (0.71%) showed an effect of 50% or more. Effects have a minus sign here. This is one part of the list.

The target in the assay is human ether-à-go-go-related gene (hERG) potassium channel (human, UniProt Q12809). The assay is described as follows: primary screen, population patch clamp on CHO cells stably expressing hERG.
human ether-à-go-go-related gene (hERG) potassium channel, sequence (Q12809 whole entry, looked up): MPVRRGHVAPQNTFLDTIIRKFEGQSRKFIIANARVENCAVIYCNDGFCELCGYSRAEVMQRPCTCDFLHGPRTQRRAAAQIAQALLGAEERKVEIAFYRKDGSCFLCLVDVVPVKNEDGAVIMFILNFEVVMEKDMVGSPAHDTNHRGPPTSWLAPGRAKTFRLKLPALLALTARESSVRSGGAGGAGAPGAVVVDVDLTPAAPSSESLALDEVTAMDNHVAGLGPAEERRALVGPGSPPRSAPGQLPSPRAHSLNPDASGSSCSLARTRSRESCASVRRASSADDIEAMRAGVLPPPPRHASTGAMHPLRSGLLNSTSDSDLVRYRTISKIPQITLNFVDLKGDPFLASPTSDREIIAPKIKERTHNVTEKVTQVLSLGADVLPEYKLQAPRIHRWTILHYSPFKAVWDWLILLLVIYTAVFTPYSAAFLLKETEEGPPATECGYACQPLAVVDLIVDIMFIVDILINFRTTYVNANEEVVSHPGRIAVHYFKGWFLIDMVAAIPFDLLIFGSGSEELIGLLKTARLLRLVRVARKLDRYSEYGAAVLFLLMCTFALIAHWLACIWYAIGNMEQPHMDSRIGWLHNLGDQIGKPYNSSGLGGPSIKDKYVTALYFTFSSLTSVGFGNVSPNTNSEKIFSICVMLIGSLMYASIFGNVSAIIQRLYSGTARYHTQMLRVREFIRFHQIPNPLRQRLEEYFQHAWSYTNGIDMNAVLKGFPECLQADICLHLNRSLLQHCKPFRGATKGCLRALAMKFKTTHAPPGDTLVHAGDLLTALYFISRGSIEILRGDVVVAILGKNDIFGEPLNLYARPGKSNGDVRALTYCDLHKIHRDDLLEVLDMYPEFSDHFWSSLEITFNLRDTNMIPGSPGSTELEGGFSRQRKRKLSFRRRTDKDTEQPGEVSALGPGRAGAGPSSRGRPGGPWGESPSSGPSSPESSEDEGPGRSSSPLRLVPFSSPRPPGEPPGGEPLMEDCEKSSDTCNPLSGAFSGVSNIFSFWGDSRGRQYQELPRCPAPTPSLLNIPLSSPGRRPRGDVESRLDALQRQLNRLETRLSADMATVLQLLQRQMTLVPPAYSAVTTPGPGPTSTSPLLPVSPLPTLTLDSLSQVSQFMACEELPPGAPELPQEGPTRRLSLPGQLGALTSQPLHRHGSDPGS
On to `CCOC(=O)c1sc(N)c(C(N)=O)c1C`, for which the “hERG current change (%, negative = inhibition) at 1uM” value is on record as 12%.
To `COCCNC(=S)N1CCCN(c2nc3cc(C)ccc3cc2C#N)CC1` belongs 3.65%.
As for `Cc1ccc(OCCC(=O)Nc2ccccc2C(=O)NC2CC2)cc1`, the “hERG current change (%, negative = inhibition) at 1uM” value amounted to 5.49%.
Then `COc1ccc(CCn2c(=N)c(C(=O)NCCN3CCOCC3)cc3c(=O)n4cccc(C)c4nc32)cc1OC`, with -44.4%; and `C=CCNC(=S)Nc1ccccc1-c1nnc2n1CCCCC2`, with 16.2%.
Regarding `CC(C)(C)C1CCc2c(C(=O)NNC(=O)CCCC(=O)O)csc2C1` (stereo not shown), the “hERG current change (%, negative = inhibition) at 1uM” value is 10.6%.
To `COc1ccc(CN(C)C(=S)Nc2ccc(Cl)cc2)cc1` belongs 17.3%; to `COc1ccc(C(c2c(O)ccc3ccccc23)N2CCOCC2)c(OC)c1` (stereo not shown), 18.7%.
As for `O=C(NCc1cccnc1)Nc1cc(Cl)cc(Cl)c1`, the “hERG current change (%, negative = inhibition) at 1uM” value was 5.75%.
Regarding `O=C(NCC1CCCO1)c1ccc(NS(=O)(=O)c2cccc([N+](=O)[O-])c2)cc1` (stereo not shown), the “hERG current change (%, negative = inhibition) at 1uM” value worked out at 5.71%.
For `O=C(COC(=O)/C=C/c1cccs1)Nc1ccccc1Cl`, the “hERG current change (%, negative = inhibition) at 1uM” value is reported as 10.4%.
For `Cc1cc(NC(=O)CSc2nnc(NC(=O)C3CC(=O)N(c4ccccc4C)C3)s2)no1` (stereo not shown), the “hERG current change (%, negative = inhibition) at 1uM” value amounted to 10.1%.
To `COc1cccc(NC(=O)CN(C)C(=O)c2ccc(-n3cncn3)c([N+](=O)[O-])c2)c1` belongs -5.36%; to `O=C(O)c1ccc(Cl)c(S(=O)(=O)N2CCCCCC2)c1`, -2.42%.
In the case of `COc1cc(C(=O)OCC(=O)NCc2ccccc2)cc(NC(=O)c2ccco2)c1OC`, the “hERG current change (%, negative = inhibition) at 1uM” value worked out at 9.14%.
Then `COc1ccc(C2CC(c3ccc([N+](=O)[O-])cc3)=NN2C(C)=O)cc1` (stereo not shown), with -7.15%.
With `CCN(Cc1ccccc1)C(c1ccc(Cl)cc1)c1nnnn1C(C)(C)C` (stereo not shown), the “hERG current change (%, negative = inhibition) at 1uM” value turned out to be 7.08%.
In the case of `CCCSc1nnc(CSc2nc3nc(C)cc(C)n3n2)o1`, the “hERG current change (%, negative = inhibition) at 1uM” value is given as 10.6%.
`COc1ccc(OC)c(S(=O)(=O)N2CCC(C(=O)NCc3ccccc3)CC2)c1`: the “hERG current change (%, negative = inhibition) at 1uM” value is reported as 3.23%.
For `O=C(NCc1ccc(OC(F)(F)F)cc1)C1CC(c2cccc(F)c2)=NO1` (stereo not shown), the “hERG current change (%, negative = inhibition) at 1uM” value turned out to be 1.66%.
With `CN(c1ccc(OCC(=O)OCC(=O)Nc2c(F)c(F)c(F)c(F)c2F)cc1)S(=O)(=O)c1ccc(F)cc1`, the “hERG current change (%, negative = inhibition) at 1uM” value is 21.9%.
For the compound `COc1c(C(=O)Nc2c(C)n(C)n(-c3ccccc3)c2=O)ccc2ccccc12`, the “hERG current change (%, negative = inhibition) at 1uM” value is -1.91%.
To `COc1ccc(C)cc1NC(=O)CSc1nnc(-c2ccco2)n1N` belongs 10.2%.
Turning to `O=C(O)C(=O)Nc1nc(-c2ccc3c(c2)OCCO3)cs1`, the “hERG current change (%, negative = inhibition) at 1uM” value turned out to be 16.3%.
Take `CCOc1ccc(CC(=O)N2CCN=C2SCc2ccc([N+](=O)[O-])cc2)cc1`: the “hERG current change (%, negative = inhibition) at 1uM” value is -1.71%.
In the case of `CC(C)(C)c1ccc(C(=O)NCCCn2ccnc2)cc1.Cl`, the “hERG current change (%, negative = inhibition) at 1uM” value was -0.0221%.
For the compound `CC(C)(C)SCCSC1=CC(=O)CC(c2ccccc2)C1` (stereo not shown), the “hERG current change (%, negative = inhibition) at 1uM” value was found to be 4.93%.
On to `Nc1no[n+]([O-])c1-c1ccccc1`, for which the “hERG current change (%, negative = inhibition) at 1uM” value is recorded as 19.3%.
To `CN(C(=O)COC(=O)c1cc(S(=O)(=O)N2CCCCC2)ccc1N1CCOCC1)C1CCS(=O)(=O)C1` (stereo not shown) belongs 12.7%; to `CN(C)c1ccc(NC(=O)c2cccc(N3C(=O)CCC3=O)c2)cc1`, 4.99%.
Then `CC(C)CSc1nc2c(=O)[nH][nH]c(=O)c2n1Cc1ccccc1`, with 5.37%; and `COC(=O)n1c(=O)oc2cc(S(=O)(=O)N3CCOCC3)ccc21`, with -13.1%.
On to `O=S(=O)(c1ccc(N2CCOCC2)c(Cl)c1)N1CCOCC1`, for which the “hERG current change (%, negative = inhibition) at 1uM” value is reported as 15.9%.
Then `CC1=NN(c2ccccc2)C(=O)C1N=Nc1ccc(N)cc1` (stereo not shown), with 10.3%; and `O=C(Nc1ccccc1F)C1CCCN1S(=O)(=O)c1ccc(Cl)cc1` (stereo not shown), with 7.58%.
In the case of `O=C(c1c[nH]cc1-c1ccccc1)c1cccc2ccccc12`, the “hERG current change (%, negative = inhibition) at 1uM” value is on record as -2.22%.
As to `Cc1ccc(CN2C(=O)/C(=C\c3ccc(C(=O)NCc4cccnc4)cc3)Oc3ccccc32)cc1`, the “hERG current change (%, negative = inhibition) at 1uM” value is reported as 2.38%.
As for `O=C(c1ccc2c(=O)n3c(nc2c1)CCC3)N1CCN(S(=O)(=O)c2cccc(F)c2)CC1`, the “hERG current change (%, negative = inhibition) at 1uM” value was 6.52%.
As to `Cc1cccc(C)c1NC(=O)C1(N2CCN(C(=O)c3ccco3)CC2)CCCCC1`, the “hERG current change (%, negative = inhibition) at 1uM” value is on record as 3.3%.
On to `CCCC(C(=O)NC1=NCCS1)c1ccccc1` (stereo not shown), for which the “hERG current change (%, negative = inhibition) at 1uM” value was 14.1%.
Regarding `S=C(NCc1cccnc1)Nc1ccc(Cl)c(Cl)c1`, the “hERG current change (%, negative = inhibition) at 1uM” value is given as -3.22%.
To `COc1ccc(NS(=O)(=O)c2cc3c4c(c2)CCN4C(=O)CC3)cc1OC` belongs 11.3%; to `CCSc1cc(C)nc2ncnn12`, 13.4%; to `CCN(Cc1ccccc1)C(=O)COC(=O)c1cc(S(=O)(=O)Nc2c(C)n(C)n(-c3ccccc3)c2=O)ccc1C`, -44%.
With `Cc1nnc(NC(=O)CCS(=O)(=O)c2ccccc2)s1`, the “hERG current change (%, negative = inhibition) at 1uM” value came out at 17.6%.
To `CCOC(=O)C(C)Sc1nc(-c2ccco2)cc(C(F)(F)F)c1C#N` (stereo not shown) belongs 0.973%; to `Cc1cc(Cl)ccc1NC(=O)c1ccc2c(c1)CCN2S(C)(=O)=O`, 9.68%.
As for `COc1ccc(CNC(=O)Cn2cnc3c(=O)n(C)c(=O)n(C)c32)cc1`, the “hERG current change (%, negative = inhibition) at 1uM” value was 10.2%.
Then `Cc1ccc(C(=O)Nc2ccccc2C(=O)O)cc1S(=O)(=O)NCc1ccccc1`, with 12.4%; and `O=S1(=O)CCOC[C@H](Cc2ccccc2)N1Cc1cccc(C(F)(F)F)c1`, with 18.2%; and `CCOC(=O)CC(c1ccc([N+](=O)[O-])cc1)n1c(C)ccc1C` (stereo not shown), with 2.21%.
As to `O=C1Cc2ccccc2C(=O)N1OCc1ccc(Cl)cc1Cl`, the “hERG current change (%, negative = inhibition) at 1uM” value is listed as 15.5%.
As to `CC1CCCN(c2ncnc3c2cnn3-c2ccc(Cl)cc2)C1` (stereo not shown), the “hERG current change (%, negative = inhibition) at 1uM” value worked out at 11.8%.
To `COc1ccc2c(CC(=O)OCC(=O)Nc3ccccc3[N+](=O)[O-])coc2c1` belongs 13.9%.
`COc1cc(S(=O)(=O)n2cnc(C)c2)ccc1Cl`: the “hERG current change (%, negative = inhibition) at 1uM” value worked out at 6.58%.
